According to paper PMC5283754:
Results are given in words; binding and its absence hold for the method and conditions named. For part of these data: Binding seen in cells or lysates may run through a third protein. Some binding calls cover weakened binding; strength is not graded here. For part of these data: Tags and fused reporters may be left off the sequences shown.

The chains behind the UniProt entries cited, without tags or fusion partners. Where a name states a change or a piece, a line headed by the entry shows the natural chain unless it says otherwise.
UniProt Q96EP0: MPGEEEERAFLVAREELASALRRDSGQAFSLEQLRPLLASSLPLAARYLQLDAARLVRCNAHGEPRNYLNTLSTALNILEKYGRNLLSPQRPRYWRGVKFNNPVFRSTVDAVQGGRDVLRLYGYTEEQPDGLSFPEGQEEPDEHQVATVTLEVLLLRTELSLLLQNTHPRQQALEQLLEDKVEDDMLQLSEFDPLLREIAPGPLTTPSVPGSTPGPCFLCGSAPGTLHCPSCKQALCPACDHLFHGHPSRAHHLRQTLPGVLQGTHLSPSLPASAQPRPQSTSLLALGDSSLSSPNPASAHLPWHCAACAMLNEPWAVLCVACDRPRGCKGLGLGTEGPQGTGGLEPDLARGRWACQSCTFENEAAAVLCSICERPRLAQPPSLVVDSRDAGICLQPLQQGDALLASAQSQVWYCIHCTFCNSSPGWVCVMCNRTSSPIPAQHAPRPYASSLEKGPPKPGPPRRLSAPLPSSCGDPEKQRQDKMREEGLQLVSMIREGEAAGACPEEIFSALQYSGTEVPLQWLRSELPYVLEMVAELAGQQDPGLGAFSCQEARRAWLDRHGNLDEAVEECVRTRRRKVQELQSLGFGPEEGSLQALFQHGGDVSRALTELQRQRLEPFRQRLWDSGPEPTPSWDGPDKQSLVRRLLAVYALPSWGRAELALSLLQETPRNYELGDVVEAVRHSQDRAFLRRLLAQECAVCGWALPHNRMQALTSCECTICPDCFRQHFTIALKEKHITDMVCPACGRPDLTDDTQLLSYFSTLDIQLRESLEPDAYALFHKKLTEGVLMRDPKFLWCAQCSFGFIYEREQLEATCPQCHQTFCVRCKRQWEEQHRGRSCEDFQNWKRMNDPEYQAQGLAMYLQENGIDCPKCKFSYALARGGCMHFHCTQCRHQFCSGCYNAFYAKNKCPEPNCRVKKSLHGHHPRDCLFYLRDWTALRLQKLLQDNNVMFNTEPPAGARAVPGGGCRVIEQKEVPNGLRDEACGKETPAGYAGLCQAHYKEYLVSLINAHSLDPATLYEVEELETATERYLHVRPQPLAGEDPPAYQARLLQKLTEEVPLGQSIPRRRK
UniProt Q9BYM8: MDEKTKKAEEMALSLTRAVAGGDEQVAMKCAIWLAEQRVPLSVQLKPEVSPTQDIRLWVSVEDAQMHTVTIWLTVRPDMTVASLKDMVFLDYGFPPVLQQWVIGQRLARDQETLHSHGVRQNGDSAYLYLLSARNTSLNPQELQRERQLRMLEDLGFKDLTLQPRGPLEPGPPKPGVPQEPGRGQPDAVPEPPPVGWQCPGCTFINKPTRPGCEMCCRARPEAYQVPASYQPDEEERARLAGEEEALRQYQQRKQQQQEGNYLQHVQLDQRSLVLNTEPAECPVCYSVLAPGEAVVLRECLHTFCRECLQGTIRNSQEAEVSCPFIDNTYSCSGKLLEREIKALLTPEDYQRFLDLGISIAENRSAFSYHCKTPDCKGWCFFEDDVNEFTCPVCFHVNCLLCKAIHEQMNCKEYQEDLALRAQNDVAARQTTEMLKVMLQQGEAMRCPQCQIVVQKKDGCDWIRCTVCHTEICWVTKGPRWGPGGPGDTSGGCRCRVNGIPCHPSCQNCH
UniProt O15111: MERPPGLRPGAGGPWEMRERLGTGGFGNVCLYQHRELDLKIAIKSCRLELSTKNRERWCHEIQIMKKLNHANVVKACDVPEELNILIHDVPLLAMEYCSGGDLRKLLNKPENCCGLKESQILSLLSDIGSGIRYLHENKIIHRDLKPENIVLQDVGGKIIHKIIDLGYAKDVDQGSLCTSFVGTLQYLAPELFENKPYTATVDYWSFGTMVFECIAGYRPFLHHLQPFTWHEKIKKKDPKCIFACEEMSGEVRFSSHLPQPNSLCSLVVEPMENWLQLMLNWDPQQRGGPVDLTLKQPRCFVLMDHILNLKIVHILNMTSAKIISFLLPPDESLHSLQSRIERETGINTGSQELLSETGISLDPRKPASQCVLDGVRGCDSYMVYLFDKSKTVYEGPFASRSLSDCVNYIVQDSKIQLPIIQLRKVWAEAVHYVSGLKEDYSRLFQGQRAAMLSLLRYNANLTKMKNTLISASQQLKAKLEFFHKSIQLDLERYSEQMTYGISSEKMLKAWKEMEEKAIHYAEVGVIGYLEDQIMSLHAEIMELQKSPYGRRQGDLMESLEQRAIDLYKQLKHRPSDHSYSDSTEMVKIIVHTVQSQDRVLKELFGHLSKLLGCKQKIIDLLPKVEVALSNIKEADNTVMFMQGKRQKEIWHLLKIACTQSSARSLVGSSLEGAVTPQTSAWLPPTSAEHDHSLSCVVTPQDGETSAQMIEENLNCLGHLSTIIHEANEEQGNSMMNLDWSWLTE

Legend:
Myc-HOIP = Myc-HOIP (UniProt Q96EP0); experiment: co-IP; HEK293T co-transfected with HOIL-1L-HA or Myc-HOIP (or deletion mutants) and a Tax plasmid, 48 h; immunoprecipitation with anti-HA or anti-Myc, immunoblot with anti-Tax
HOIL-1L-HA = HOIL-1L-HA (UniProt Q9BYM8); experiment: as above
[1] = target: recombinant His6-Tax (HTLV-1 Tax) (HTLV-1) (UniProt P03409); experiment: co-IP; recombinant His6-Tax or His6-M22 incubated with Jurkat S-100 cytosolic extract and ATP (2 mM), 30°C 1 h; immunoprecipitation with an anti-Tax antibody, immunoblot; also done with ubiquitin mutants or HA-ubiquitin (50 μM) added (Fig 3D); only the target purified
[2] = target: Tax in HTLV-1-infected T cell lines (HTLV-1) (UniProt P03409); experiment: co-IP; cell lysates in IP buffer (150 mM NaCl, 1% NP-40); immunoprecipitation with an anti-Tax antibody, immunoblot; JPX-9 with or without CdCl2 (20 μM, 18 h); HUT102 with control antibody; MT-2 and MT-4 with control or Tax shRNA
[3] = target: Tax induced in JPX-9 cells (HTLV-1) (UniProt P03409); experiment: as above
GST-HOIP = GST-HOIP (UniProt Q96EP0); experiment: pull-down; 300 ng GST fusion protein on glutathione sepharose, 500 ng His6-Tax, 4°C 1 h, 50 mM Tris-HCl pH 7.5, 150 mM NaCl, 1 mM EDTA, 1% Triton X-100, 1 mM DTT, 2.5 mg/ml BSA; immunoblot with anti-Tax; both purified
GST-HOIL-1L = GST-HOIL-1L (UniProt Q9BYM8); experiment: as above
GST-Sharpin = target: T1, GST-Sharpin (UniProt Q9H0F6); experiment: as above
T1 sequence: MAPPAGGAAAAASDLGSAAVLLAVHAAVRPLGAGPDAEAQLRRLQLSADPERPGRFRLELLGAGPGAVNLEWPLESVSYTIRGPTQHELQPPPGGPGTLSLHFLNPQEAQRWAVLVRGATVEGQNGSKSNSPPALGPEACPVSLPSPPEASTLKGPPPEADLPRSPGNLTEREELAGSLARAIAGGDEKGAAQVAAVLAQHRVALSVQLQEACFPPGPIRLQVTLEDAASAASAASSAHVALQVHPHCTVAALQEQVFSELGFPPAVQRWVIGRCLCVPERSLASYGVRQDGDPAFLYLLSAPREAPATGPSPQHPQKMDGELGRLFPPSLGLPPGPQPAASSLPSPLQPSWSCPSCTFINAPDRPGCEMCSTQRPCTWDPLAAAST

For “Tax expressed in HEK293T cells (from UniProt P03409 1-353)”, the binding (Myc-HOIP) was “binds” and the binding (HOIL-1L-HA) was “binds”.

With “IKK complex (endogenous) (from UniProt O15111 1-745; O14920 1-756; Q9Y6K9 1-419)” the binding [1] was “binds”.

In the case of “HOIP (endogenous) (from UniProt Q96EP0 1-1072)”, the binding [1] is reported as “binds”, the binding [2] is reported as “binds” and the binding [3] is reported as “binds”.

“recombinant His6-Tax (HTLV-1 Tax) (from UniProt P03409 1-353)” was tested, and the binding (GST-HOIP) was “binds”, the binding (GST-HOIL-1L) was “binds” and the binding (GST-Sharpin) was “no binding (tested: 500 ng of His6-Tax)”.
